Sequences with one replicate were seen in a single cluster, so their values are uncertain.
Tested on: ATP
Experiment: switch fluorescence ratio, 500 uM ATP over buffer (Cy3 cluster intensity, sum of 5 cycles each) (fold (ratio)); higher = stronger signal-on switching upon ATP binding; sequences stand for … in TCGTCGGCAGCGTCAGATGTGTATAAGAGACAGTTTTTTTTTTTTTTTTTTTTTTTTT…TC
Conditions: aptamer strand: ATP DNA aptamer (quencher-CACCTGGGGGAGTATTGCGGAGGAAGG + anchor), 100 nM annealed; ATP concentration: 500 uM; one replicate
Summary of the method: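 Clusters with intensities outside 100-1000 RFU were excluded. The remaining Cy3-labelled switching-strand clusters on a modified Illumina MiSeq flow-cell had been annealed to 100 nM quencher-labelled ATP aptamer and imaged in selection buffer, then after 15 min with 500 uM ATP at 22 °C, for five cycles separated by NaOH stripping and re-annealing. The fluorescence ratio, averaged per switch-domain sequence, is each cluster's summed target-cycle Cy3 intensity over its summed buffer-cycle Cy3 intensity.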
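Further: ATP exposure 15 min at 22 °C before imaging.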

| Sequence | switch fluorescence ratio |
| --- | --- |
| GACAGGAGTG | 0.964 |
| AAGACTCATT | 1 |
| CCGGCCTATT | 1.05 |
| CATGACGAGA | 0.998 |
| CCAAGGGGAT | 1.01 |
| GTTCATCCAT | 1.01 |
| CAGGGCAAGA | 1.17 |
| TGGTTGTAGA | 0.989 |
| CGCGTTAAAG | 0.974 |
| TTGTGACTG | 1 |
| CATCCATACG | 1.34 |
| ATAGTCATCG | 0.99 |
| TAGAATCAGA | 0.978 |
| AGCGGCATCA | 0.998 |
| TATGGGAAGT | 0.963 |
| AGGGTATAGG | 0.998 |
| GAGACACTAT | 1.04 |
| CTAGGGATTG | 0.985 |
| TTTTTGTGTC | 0.926 |
| GAATAGAGAA | 1 |
| GGCGTCAGCT | 0.986 |
| GTTCTTGGTA | 1.01 |
| TTCTAAATTG | 1.1 |
| AAGGCTGGGC | 0.996 |
| GGTGCTAAAC | 1.01 |

| Sequence | switch fluorescence ratio |
| --- | --- |
| GGTTGTGTCT | 1 |
| TACATTATGT | 0.995 |
| GCTAATCTTC | 0.983 |
| GGATTTGCGG | 0.941 |
| ACGCTATAAA | 1.16 |
| AGCAAATGTG | 0.997 |
| GGCCACTAAG | 1.05 |
| TTAAACGAGG | 0.985 |
| CCAGACAATC | 2.31 |
| TTCGGAAGTG | 0.975 |
| GCAGGGACCG | 1.01 |
| TGTTCACCGC | 1.06 |
| TCTGTTTATA | 0.979 |
| AATAGTCTTG | 0.98 |
| TTACATGTGG | 1.01 |
| TTAATGTGCA | 0.979 |
| ACATTGTAGT | 0.962 |
| TTTGTCATCC | 1 |
| CTATTGCGGA | 1.01 |
| GAATCTGTAT | 1.01 |
| TAAGCTACTG | 1.11 |
| TATCAGTGGA | 1.04 |
| CAACAATTTT | 0.979 |
| GCTCCTATCG | 1.07 |
| TATCGGTGCG | 0.964 |

| Sequence | switch fluorescence ratio |
| --- | --- |
| AATCAACTGG | 0.953 |
| CTAGAGCGTT | 1.03 |
| GCATGGTTAC | 1.14 |
| TGCGAGTGGC | 1.2 |
| GTAAGACTGT | 1 |
| CAGGATAATT | 0.991 |
| TGGAACAGAA | 1 |
| GCGAGGGTTA | 1.02 |
| AGAGGTGAGT | 1 |
| TTCCGTCGAT | 1 |
| TAGTTGCCTT | 0.964 |
| CAGGTTAGTA | 0.984 |
| TTCAAGTATA | 1.03 |
| TATTAAGCAA | 1.59 |
| GACATTTTGA | 0.998 |
| GTAGCAGAGC | 1.05 |
| CTTTATAGAC | 1.02 |
| GTTTTGACGA | 0.976 |
| CTTGGCTAGG | 1.03 |
| GCTTCTTCGT | 1.07 |
| TGTTAAATTC | 0.994 |
| GCGATACTTA | 1.5 |
| GTTTATGTGT | 0.992 |
| GTGGGATTA | 1.03 |
| GTGAGTTGGT | 1.02 |

| Sequence | switch fluorescence ratio |
| --- | --- |
| AGGTTGCTGG | 0.967 |
| ATAAGTGGAA | 1 |
| TACTACGGTA | 1.14 |
| CAGAGTTAGC | 0.975 |
| CAGAGAAAAT | 0.984 |
| GACCCACGGA | 1.01 |
| ACTCATAGCT | 1.05 |
| TGGCCCATCG | 0.993 |
| TGCGGACGGT | 0.998 |
| CAGGTTGCCA | 1.02 |
| TGTGTAGAAG | 0.948 |
| TTGGGTGGAC | 0.991 |
| TTACTTTAAT | 1.07 |
| ACGACGGGGT | 1.02 |
| CAATTGTATA | 1.03 |
| CAGATCAGTC | 1.02 |
| CTTATGGCGG | 0.964 |
| GGTTCATCGT | 1.02 |
| CTAAGCAAAA | 1.01 |
| CAGAGAAGGG | 1 |
| CGAGGCGGTG | 1.01 |
| CATCAGAATG | 0.945 |
| CCCGTGCAA | 1.15 |
| AAGTAGCCCG | 1.01 |
| TTTCCTGCTT | 0.931 |
